# According to ChEMBL document CHEMBL4888484, “Replenishing the malaria drug discovery pipeline: Screening and hit evaluation of the MMV Hit Generation Library 1 (HGL1) against asexual blood stage Plasmodium falciparum ,using a nano luciferase reporter read-out” (2022):
# Screen size: about 150,000 compounds; about 540 (0.36%) showed an effect of 50% or more. The list shows a part of the results.
# Tested on: Plasmodium falciparum
# Assay: Primary screen in NF54 nanoGlo assay, in single point, at 2uM, 72h; a lower Z score goes with more inhibition
# Type: functional, Erythrocyte
# Settings: timepoint 72 hour
Compound,% Inhibition [%],Z score
Cc1nn(-c2ccccc2)c2nc(N3CCC[C@H](C(=O)NCc4ccc(F)cc4)C3)sc12,-13,1.74
O=C(CC[C@H]1CCOC1)N(CC(F)F)c1ccc(F)cc1,-2,0.19
Nc1[nH]nc(C(=O)NC2(C(=O)O)CCCC2)c1Cl,-28,2.44
CCO[C@H]1CCN(C(=O)Nc2cccc3c2OCC3)C1,1,-0.2
Cc1c(C(=O)Nc2ccccc2C(=O)N2CCCCC2)oc2ccccc12,-11,1.73
CCOc1nnc(CN2CCC[C@H](Cc3nc(C)no3)C2)s1,1,-0.12
CC(C)C[C@@](C)(CC(=O)O)C(=O)N1CC2CC1(C)C2,-6,0.76
COC(=O)c1c(O)ccn1Cc1ccccc1,30,-3.83
CC(C)C1CCC(C)C(C(C#N)(C#N)C(C#N)C#N)C1=O (configuration not stated),-12,1.47
C[C@@H](C#N)NS(=O)(=O)c1sccc1Cl,-8,1.23
Cn1cc(C2OCCC2CNCc2ccc(C#N)cc2)cn1 (configuration not stated),-9,1.54
O=C(Cn1c(=O)n(Cc2ccc(F)cc2)c(=O)c2sccc21)Nc1ccc(F)c(Cl)c1,-2,0.23
CCc1ccc(CN(C)Cc2cc3n(n2)CCCN(C[C@H]2CCOC2)C3)nc1,6,-1
CCCN1C(=O)c2ccccc2N2C(=O)CC[C@@]12C(=O)Nc1ccc(OC)cc1,88,-16.69
Cc1ncsc1C(=O)N1CCOC[C@@H]1CC(=O)c1ccccc1,-7,1.02
Cn1cc(CN2CCc3[nH]ncc3C2)c(NC(=O)OC(C)(C)C)n1,-6,1.24
Cn1cc(C(=O)N(Cc2c(F)cccc2F)C2CC2)cn1,1,-0.12
CCOc1ccc(-c2noc(-c3cn(-c4ccc(OC)c(OC)c4)c(=O)c4ccccc34)n2)cc1OC,15,-1.78
Cc1cccnc1Cn1cnc2c(=O)[nH]c(N[C@@H](C)c3ccccc3)nc(=O)c21,-5,0.44
CCn1nc(-n2cnnc2)c(NC(=O)c2cc(Br)ccc2OC)c1C,30,-4
O=C1NC[C@H]2O[C@H](CCOc3ccccc3C(=O)N3CCN(Cc4ccc(F)c(F)c4)C[C@@H]13)CC[C@H]2n1cc(CN2CCOCC2)nn1,-2,0.34

Compound,% Inhibition [%],Z score
O=C(NC1CCC(CC2CCC(NC(=O)c3cccnc3)CC2)CC1)c1cccnc1 (configuration not stated),-26,3
COc1ccc(NC(=O)N2CCCN(c3nc4cc(F)ccc4n4cccc34)CC2)c(OC)c1,12,-2.09
OC1Cc2ccccc2C1NCc1cccnc1 (configuration not stated),4,-0.61
Cc1cccc(OC2CCN(c3cc(N)ncn3)CC2)c1,-11,1.33
COc1cc(F)c(CN2[C@@H]3CC[C@H]2CNC(=O)C3)cc1OC,-15,2.71
FC(F)[C@@H]1CN(c2nnnn2-c2ccccc2)CCO1,-15,2.23
CC1=C(c2ccc(C)c(C)c2)S(=O)(=O)N=C1N1CCC(NC(=O)C2CCCC2)CC1,-11,2.17
CC(=O)N1CCOC[C@H]1c1nc(Cc2cccc3cccnc23)no1,-6,1.11
CC(C)Oc1cccc(CCNC(=O)N2CCCC3(CCOCC3)C2)c1,-7,0.62
CC(C)(C)c1ncnc(N)c1Br,1,-0.2
COc1cc(C)ccc1OCCC(=O)NCc1ccnn1C,-4,0.53
Cc1ccc([C@@H]2C=C(c3ccc(-c4ccccc4)cc3)Nc3nnnn32)cc1,1,-0.1
Cn1cc(N2C[C@@H](NC(=O)OC(C)(C)C)CC2=O)cn1,6,-1.19
O=C(NCc1cccs1)NC[C@H](O)c1ccsc1,-14,2.36
CCc1nn(C)c(Cl)c1CNCC1CN(C(=O)c2ccccc2)C2CCN1C2 (configuration not stated),0,0.04
COc1cc(C(=O)Nc2cccnc2)ncn1,-8,1.37
CCCN(C[C@H]1CCCCO1)C(=O)c1cncc(Br)c1,-16,3.02
Cc1ccc(-n2nnc(C(=O)Nc3ccc4c(c3)OCCO4)c2-c2cccnc2)cc1C,-1,0.14
CCOc1cccc(C(=O)N2C[C@@H](CN3C[C@@H](C)O[C@@H](C)C3)[C@@H](CO)C2)c1,-10,1.27
Cc1cc(-c2cc(F)cc3cccnc23)c(O)nc1C,-1,0.17
